The test system of one experiment is NR2F6^E204A. As to the kind of experiment: TR-FRET coregulator peptide recruitment, E204A. Format: binding, human. The settings on record: 250 nM biotinylated peptide, three independent experiments. From the text:
(§1) Primers were purchased from Integrated DNA Technologies. […] Mutations were confirmed by sequencing (Baseclear). […] ice. […] 1.6 Biochemical Assays […] Data recorded in triplicate. […] N-terminal
For orientation: TR-FRET usually uses a lanthanide donor and a delayed reading to cut background.

The subject of a further experiment is MBP-NR2F6 fusion. The experiment can be described thus: DSF of MBP-NR2F6 with coregulator peptides. It is filed as binding, human. Particulars: peptide with 2.5 µM MBP-NR2F6, DSF, pH 7.5.
For another experiment, the system named is NR2F6^F211A. The experiment can be described thus: TR-FRET coregulator peptide recruitment, F211A. Particulars: 250 nM biotinylated peptide, three independent experiments. Format: binding, human.
Source text: as §1

The target in a further experiment is T1, NR2F6 LBD (Homo sapiens, UniProt P10588).
T1 sequence (P10588 164-404): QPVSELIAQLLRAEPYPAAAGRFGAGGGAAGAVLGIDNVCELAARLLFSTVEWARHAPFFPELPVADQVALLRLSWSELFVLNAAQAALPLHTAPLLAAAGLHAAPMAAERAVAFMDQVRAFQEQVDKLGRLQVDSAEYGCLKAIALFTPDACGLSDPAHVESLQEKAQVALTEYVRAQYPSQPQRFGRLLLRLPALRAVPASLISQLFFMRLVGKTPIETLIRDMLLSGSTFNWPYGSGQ
The experiment can be described thus: bio-NSD1 titration (TR-FRET).

Experiment [1] has as its target T2, NSD1 peptide (FAM-labeled) FSXXLXXL motif peptide (Homo sapiens, UniProt Q96L73).
T2 chain: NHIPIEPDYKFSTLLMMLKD
As to the kind of experiment: fluorescence anisotropy.

In experiment [2] the target is T3, NSD1 peptide (biotinylated) FSXXLXXL motif peptide (Homo sapiens, UniProt Q96L73, biotinylated NSD1 peptide).
T3 chain: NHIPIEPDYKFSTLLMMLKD
The experiment can be described thus: TR-FRET.

Experiment [3] deals with T4, NSD1 peptide (FAM-labeled) FSXXLXXL motif peptide (Homo sapiens, UniProt Q96L73, FAM-labeled NSD1 peptide).
T4 chain: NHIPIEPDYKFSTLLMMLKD
As to the kind of experiment: fluorescence anisotropy. Background: In fluorescence polarisation assays a small probe gives low polarisation when free and higher when bound to something large.

The target of experiment [4] is T5, BCL11A-1 peptide (RID1) F/YSXXLXXL/Y motif peptide (RID1) (Homo sapiens, UniProt Q9H165).
T5 chain: Ac-EPPAMDFSRRLRELAGNT
The experiment can be described thus: TR-FRET displacement of bio-NSD1.

For orientation: Kd means the constant that tells how readily two partners part at equilibrium. Low values mean higher affinity, high ones lower affinity. What is called IC50 is the point on the concentration scale where inhibition reaches its midpoint. Low readings indicate higher potency, high ones lower potency.

Ends that are not written are not given here. Peptide text beside a SMILES is read from it. * marks the point of attachment. Biotin = O=C1N[C@H]2[C@H](CS[C@H]2CCCCC(=O)*)N1; Ahx = NCCCCCC(=O)O Bounds are passed on as bounds.

In the case of “Ac-ENVYSQWLAGYAASRQLKD-NH2 (N-terminus and C-terminus assumed) [BCL11A-2]”, the “recruitment of coregulator peptide (in words)” value in the experiment with NR2F6^E204A and with NR2F6^F211A was “failed to induce recruitment” each time. The “effect on protein melting temperature (in words)” value in the experiment on MBP-NR2F6 fusion is “increased the protein melting temperature”.
`CC[C@H](C)[C@H](NC(=O)[C@@H]1CCCN1C(=O)[C@@H](NC(=O)[C@H](Cc1c[nH]cn1)NC(=O)[C@H](CC(N)=O)NC(=O)[C@H](CCC(N)=O)NC(=O)[C@H](CO)NC(=O)[C@H](CO)NC(=O)[C@H](C)NC(=O)CCCCCNC(=O)CCCC[C@@H]1SC[C@@H]2NC(=O)N[C@@H]21)[C@@H](C)CC)C(=O)N[C@@H](CCC(=O)O)C(=O)N1CCC[C@H]1C(=O)N[C@@H](CC(=O)O)C(=O)N[C@@H](Cc1ccc(O)cc1)C(=O)N[C@@H](CCCCN)C(=O)N[C@@H](Cc1ccccc1)C(=O)N[C@@H](CO)C(=O)N[C@H](C(=O)N[C@@H](CC(C)C)C(=O)N[C@@H](CC(C)C)C(=O)N[C@@H](CCSC)C(=O)N[C@@H](CCSC)C(=O)N[C@@H](CC(C)C)C(=O)N[C@@H](CCCCN)C(=O)N[C@@H](CC(=O)O)C(=O)N[C@@H](CCSC)C(=O)N[C@@H](Cc1c[nH]cn1)C(=O)N[C@@H](CC(=O)O)C(=O)N[C@@H](CO)C(=O)N[C@@H](CCCCN)C(=O)N[C@H](C(N)=O)[C@@H](C)O)[C@@H](C)O` [bio-NSD1] ({Biotin-Ahx}-ASSQNHIPIEPDYKFSTLLMMLKDMHDSKT-NH2) had a Kd at NR2F6 LBD of 1.8 ± 0.1 µM.

B1: NR2F6 LBD (protein)
chain: PVSELIAQLLRAEPYPAAAGRFGAGGGAAGAVLGIDNVCALAARLLFSTVEWARHAPFFPELPVADQVALLRLSWSELFVLNAAQAALPLHTAPLLAAAGLHAAPMAAERAVAFMDQVRAFQEQVDKLGRLQVDSAEYGCLKAIALFTPDACGLSDPAHVESLQEKAQVALTEYVRAQYPSQPQRFGRLLLRLPALRAVPASLISQLFFMRLVGKTPIETLIRDMLLSG
For the molecule B1, the Kd in experiment [1] is above 150 µM.

B2: NR2F6 LBD (protein)
chain: PVSELIAQLLRAEPYPAAAGRFGAGGGAAGAVLGIDNVCELAARLLASTVEWARHAPFFPELPVADQVALLRLSWSELFVLNAAQAALPLHTAPLLAAAGLHAAPMAAERAVAFMDQVRAFQEQVDKLGRLQVDSAEYGCLKAIALFTPDACGLSDPAHVESLQEKAQVALTEYVRAQYPSQPQRFGRLLLRLPALRAVPASLISQLFFMRLVGKTPIETLIRDMLLSG
In turn, B2 returned a Kd in experiment [1] above 150 µM.

B3: NR2F6 LBD (protein)
chain: PVSELIAQLLRAEPYPAAAGRFGAGGGAAGAVLGIDNVCELAARLLFSTVEWARHAPFFPELPVADQVALLRLSWSELFVLNAAQAALPLHTAPLLAAAGLHAAPMAAERAVAFMDQVRAFQEQVDKLGRLQVDSAEYGCLKAIALFTPDACGLSDPAHVESLQEKAQVALTEYVRAQYPSQPQRFGRLLLRLPALRAVPASLISQLFFMRLVGKTPIETLIRDMLLSG
Regarding B3, the equilibrium dissociation constant (Kd) in experiment [2] amounted to 1.8 µM; in experiment [3] it was 12.7 µM. This molecule also came in with an IC50 in experiment [4] of 52 µM.

(Values after PMC12455566, “Structural Elucidation and Covalent Modulation of the Autorepressed Orphan Nuclear Receptor NR2F6” (ACS Chemical Biology, 2025).)
